In all, about 390,000 compounds went through this assay and about 4,700 (1.2%) were called active. The shares of active, inactive and inconclusive entries below differ from those in the screen. Calls come from the whole dose curve; as a rule, active = well fitted inhibition curve with a large enough effect; inconclusive = small, poorly fitted or top-dose-only effect, or another doubt; inactive = no such curve, though single readings can be large or run the other way. Potencies beside an inconclusive call are fits to weak or partial responses and may not hold up.
Each compound was assayed against DNA polymerase eta (Homo sapiens) (UniProt Q9Y253) (assay: qHTS for Inhibitors of Polymerase Eta). Conditions: recombinant Pol eta, fluorescent DNA replication assay; series mostly up to 114 µM.
UniProt Q9Y253, sequence (Q9Y253 whole entry, looked up): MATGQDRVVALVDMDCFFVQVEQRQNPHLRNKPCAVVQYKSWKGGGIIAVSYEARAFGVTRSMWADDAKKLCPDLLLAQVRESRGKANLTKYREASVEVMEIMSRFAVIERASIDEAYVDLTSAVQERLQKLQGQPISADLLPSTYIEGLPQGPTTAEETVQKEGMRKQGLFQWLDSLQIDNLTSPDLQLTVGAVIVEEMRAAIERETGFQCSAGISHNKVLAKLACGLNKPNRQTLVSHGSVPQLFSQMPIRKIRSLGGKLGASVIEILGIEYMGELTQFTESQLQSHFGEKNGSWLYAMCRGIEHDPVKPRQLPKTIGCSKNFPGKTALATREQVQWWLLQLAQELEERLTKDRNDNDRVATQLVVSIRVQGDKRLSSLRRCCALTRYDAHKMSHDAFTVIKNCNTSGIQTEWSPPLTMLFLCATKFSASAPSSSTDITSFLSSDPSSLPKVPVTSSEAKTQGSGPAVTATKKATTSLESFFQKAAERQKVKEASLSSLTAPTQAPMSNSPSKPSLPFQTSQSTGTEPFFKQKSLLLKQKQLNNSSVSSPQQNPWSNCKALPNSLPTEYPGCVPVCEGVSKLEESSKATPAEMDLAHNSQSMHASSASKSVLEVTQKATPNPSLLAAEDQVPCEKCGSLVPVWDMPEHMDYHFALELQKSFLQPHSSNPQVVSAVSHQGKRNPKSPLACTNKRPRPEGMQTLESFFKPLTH
In short: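 Fluorescent replication assay: 50 nM final substrate added after a 15 min room-temperature compound preincubation with 10 nM enzyme. Signal taken at 0 min and again at 10 min.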
Potency is the fitted concentration of half-maximal effect; tags give direction and shape of the fitted curve.

Structure (SMILES) | Potency
O=C(CN1C(=O)S/C(=C\c2cc(Cl)c(O)c(Cl)c2)C1=O)Nc1ccccc1 | inconclusive: 79.4 µM [inhibitor, partial curve]
Cc1occc1C(=O)NCc1ccc2c(c1)OCO2 | inconclusive: 39.8 µM [inhibitor, single point]
COC(=O)c1sc(N2C(=O)C(O)=C(C(=O)c3ccc(C)o3)C2c2ccc(OC)c(OC)c2)nc1C (configuration not stated) | inactive
CC(C)Cn1c(N)c(C(=O)NCc2cccs2)c2nc3ccccc3nc21 | inconclusive: 22.4 µM [inhibitor, full curve, poor fit]
COc1cc2oc(=O)ccc2c(OC)c1CC(O)C(C)(C)O (configuration not stated) | inactive
Fc1ccc(C2=Nn3c(nnc3-c3n[nH]c4c3CCC4)SC2)cc1 | inconclusive: 2.51 µM [inhibitor, partial curve, poor fit]
O=C(/C=C/c1ccco1)NC(=S)NNC(=O)c1ccco1 | active: 50.1 µM
Cc1nn2c(C)c(C(=O)NC(C)(C)C)cnc2c1-c1ccc(F)cc1 | inactive
COC(=O)c1ccc(CSc2nnc(NC(=O)C3CC(=O)N(Cc4ccc(C)cc4)C3)s2)cc1 (configuration not stated) | inconclusive: 14.1 µM [inhibitor, partial curve, poor fit]
COc1cc2[nH]c(=O)n(CCC(=O)N3CCN(c4cccc(C)c4C)CC3)c(=O)c2cc1OC | inconclusive: 39.8 µM [inhibitor, single point]
O=C(CCc1nc2ccccc2c(=O)[nH]1)NCCN1C(=O)S/C(=C\c2ccc(Cl)cc2Cl)C1=O | inconclusive: 15.8 µM [inhibitor, partial curve]
CSc1cccc(NC(=S)N2CCCN(Cc3cccc(Cl)c3)C2)c1 | inactive
COc1ccc(NC(=O)CSc2nc(-c3cccc(C)c3)[nH]c2-c2ccccc2)cc1OC | inactive
O=C1C=C(NC2CCCCC2)CCC1 | inconclusive: 89.1 µM [inhibitor, partial curve, poor fit]
CC(=O)N1CCc2c(sc3c2c(=O)n(CCc2ccccc2)c(=O)n3Cc2ccccc2C)C1 | inactive
COc1ccc(/C=C(\C#N)C(=O)OC2CCOC2=O)cc1 (configuration not stated) | inactive
COc1ccc(C(=O)Nc2cccc(/C=C(\CCC(=O)O)c3nc4ccccc4s3)c2)cc1 | active: 56.2 µM
O=C(NCc1cccs1)C(=O)NCC(c1ccco1)N1CCN(c2ccccc2F)CC1 (configuration not stated) | inconclusive: 89.1 µM [inhibitor, partial curve, poor fit]
Cc1ccc(NC(=O)C2CCN(S(=O)(=O)c3cccc4nonc34)CC2)cc1C | inactive
Cc1cc(C(=O)Nc2ccc(C(=O)O)cc2)c(-c2ccccc2)o1 | inconclusive: 28.2 µM [inhibitor, partial curve, poor fit]
CS(=O)(=O)N(CC(=O)N/N=C/c1ccco1)c1ccccc1Br | inconclusive: 35.5 µM [inhibitor, partial curve, poor fit]

Structure (SMILES) | Potency
Cc1csc(NC(=O)c2cc(-c3ccncc3)nc3ccccc23)n1 | inactive
O=C(O)c1ccc(Cl)c(S(=O)(=O)NCc2ccco2)c1 | inconclusive: 31.6 µM [inhibitor, partial curve]
CC(/C=C1\SC(=S)N(CCC(=O)Nc2cccc(C(=O)O)c2)C1=O)=C\c1ccccc1 | inconclusive: 56.2 µM [inhibitor, partial curve, poor fit]
O=C1C=C(Nc2cccc3cccnc23)c2ccccc2C1=O | active: 50.1 µM
CCCS(=O)(=O)c1c(S(=O)(=O)CCC)c2cc(C(C)(C)C)ccn2c1C(=O)c1ccccc1 | active: 89.1 µM
C=C(C)C(=O)Nc1cccc(C2=NOC3(C2)C[C@H](C(N)=O)N(C(=O)CC#N)C3)c1 (some centres not stated) | active: 20 µM
CCCC(=O)OCc1cnc(C)c2oc(=O)c(C(=O)Nc3cccc(C(F)(F)F)c3)cc12 | inactive
CN1CCN(S(=O)(=O)c2cccc(C(=O)Nc3sccc3C(N)=O)c2)CC1 | active: 44.7 µM
O=C(Cn1ncc2c3ccccc3n(Cc3cccc(Cl)c3)c2c1=O)Nc1ccc(F)cc1F | inconclusive: 79.4 µM [inhibitor, partial curve]
O=C1S/C(=C\C=C\c2ccco2)C(=O)N1c1ccccc1 | active: 44.7 µM
CCOc1cc(CNc2ccc3cn[nH]c3c2)ccc1OC | inconclusive: 28.2 µM [inhibitor, single point]
O=c1oc2cc([N+](=O)[O-])ccc2nc1/C=C(\O)c1cccc(Br)c1 | inconclusive: 25.1 µM [inhibitor, partial curve, poor fit]
O=C1NC(=Nc2ccccc2Cl)S/C1=C\c1cccc([N+](=O)[O-])c1O | inconclusive: 56.2 µM [inhibitor, partial curve, poor fit]
Cc1ccccc1NC(=O)Cc1nc(COC(=O)c2ccc(NC(N)=O)cc2)cs1 | inconclusive: 50.1 µM [inhibitor, partial curve, poor fit]
O=C1C=C(c2c(O)ccc3ccccc23)c2ccccc2C1=O | active: 20 µM
CC1=CCC2C(=O)N(c3cccc(C(=O)NC(C)c4ccccc4)c3)C(=O)C2C1 (configuration not stated) | inconclusive: 89.1 µM [inhibitor, partial curve, poor fit]
CC(C)(C)c1ccc(C(=O)Nc2ccc(S(=O)(=O)Nc3cnc4ccccc4n3)cc2)cc1 | inconclusive: 89.1 µM [inhibitor, partial curve]
CCOC(=O)c1nn(-c2ccc(C)cc2)c(=O)cc1OCC(=O)Nc1ccc(OC)cc1 | inconclusive: 15.8 µM [inhibitor, partial curve, poor fit]
O=C(N/N=C\c1ccc(-c2ccc([N+](=O)[O-])cc2)o1)C1COc2ccccc2O1 (configuration not stated) | inconclusive: 11.2 µM [inhibitor, partial curve, poor fit]
CN(C)C=Nc1c(Br)cc(Br)c2nonc12 | inconclusive: 11.2 µM [inhibitor, partial curve, poor fit]
O=C(/C=C/c1c[nH]c2ccccc12)c1cccc2ccccc12 | inconclusive: 56.2 µM [inhibitor, partial curve, poor fit]

Reference: PubChem BioAssay AID588591 (National Center for Advancing Translational Sciences (NCATS), 2011)
